Among all 220,000 compounds or so, about 16,000 (7.3%) were called active. Inconclusive results, whose numbers are uncertain, are shown with a selection of clear calls. Calls come from the whole dose curve; as a rule, active = well fitted inhibition curve with a large enough effect (not every such curve was filed as active); inconclusive = small, poorly fitted or top-dose-only effect, or another doubt; inactive = no such curve, though single readings can be large or run the other way. Potencies of inconclusive entries are left out as doubtful fits.
target: Aldehyde dehydrogenase 1A1 (Homo sapiens) (UniProt P00352); experiment: qHTS Assay for Inhibitors of Aldehyde Dehydrogenase 1 (ALDH1A1); conditions: Purified ALDH1A1, NADH fluorescence, propionaldehyde substrate; series mostly up to 75.3 µM; activity, negative = inhibition: at the top concentration;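 for activity, negative = inhibition: plate controls were no enzyme wells and a reference inhibitor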
Sequence of UniProt P00352 (P00352 whole entry, looked up): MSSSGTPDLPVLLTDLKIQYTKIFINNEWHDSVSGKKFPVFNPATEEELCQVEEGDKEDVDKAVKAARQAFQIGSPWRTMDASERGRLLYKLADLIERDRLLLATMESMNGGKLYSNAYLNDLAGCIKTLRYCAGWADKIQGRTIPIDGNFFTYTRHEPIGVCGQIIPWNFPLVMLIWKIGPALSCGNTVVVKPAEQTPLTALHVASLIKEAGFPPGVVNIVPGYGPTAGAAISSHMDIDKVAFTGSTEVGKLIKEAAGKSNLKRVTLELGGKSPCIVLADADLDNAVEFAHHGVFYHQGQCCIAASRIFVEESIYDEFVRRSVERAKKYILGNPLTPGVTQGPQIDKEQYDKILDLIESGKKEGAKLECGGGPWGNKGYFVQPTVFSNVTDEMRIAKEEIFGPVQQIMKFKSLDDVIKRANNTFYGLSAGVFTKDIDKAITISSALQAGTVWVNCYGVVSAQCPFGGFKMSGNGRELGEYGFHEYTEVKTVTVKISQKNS
Potency is the fitted concentration of half-maximal effect; tags give direction and shape of the fitted curve.

Row | Compound | activity, negative = inhibition | Potency
1 | O=C(Nc1nccs1)c1cc2c(s1)-c1ccccc1OC2 | inactive: -10.1% | –
2 | CC(C)(C)NC(=O)C(=O)NN=C1CCCCCC1 | inactive: 4.41% | –
3 | CCCC(=O)OCC(=O)c1[nH]c(C)c(C(C)=O)c1C | inactive: 9.93% | –
4 | C/C=C\C[C@@H](C)[C@@H](O)[C@H]1C(=O)N[C@@H](CC)C(=O)N(C)CC(=O)N(C)[C@@H](CC(C)C)C(=O)N[C@@H](C(C)C)C(=O)N(C)[C@@H](CC(C)C)C(=O)N[C@@H](C)C(=O)N[C@H](C)C(=O)N(C)[C@@H](CC(C)C)C(=O)N(C)[C@@H](CC(C)C)C(=O)N(C)[C@@H](C(C)C)C(=O)N1C | inactive: 0.281% | –
5 | CC(=O)c1ccc(NC(=O)CSc2nnc(-c3ccco3)c(-c3ccco3)n2)cc1 | – | active: 1.41 µM
6 | CC(=O)Nc1nnc(SCC(=O)c2ccc3c(c2)Cc2ccccc2-3)s1 | – | inconclusive [inhibitor, single point]
7 | CC(=O)Nc1ccc(NC(=O)c2c(C)nn(-c3ccccc3)c2Cl)cc1C | – | inconclusive [inhibitor, single point]
8 | CC(=O)c1ccc(NC(=O)/C(=C\c2ccccc2)NC(=O)c2ccco2)cc1 | – | inconclusive [inhibitor, single point]
9 | O=C(CN1C(=O)/C(=C\C=C\c2ccccc2)SC1=S)Nc1ccc(F)cc1 | inactive: 16.6% | –
10 | CN(C)S(=O)(=O)c1cccc(NC(=O)CNCc2ccccn2)c1 | – | inconclusive [inhibitor, partial curve]
11 | O=C1c2ccccc2N2C(=O)c3ccccc3C2N1Cc1ccco1 (centres undefined) | – | inconclusive [inhibitor, single point]
12 | Cc1ccc(Nc2ncnc3sc(C)c(C)c23)cc1C | – | inconclusive [inhibitor, partial curve]
13 | CCC(=O)N(CC(=O)Nc1sc(C)c(C)c1C(N)=O)C1CCCC1 | – | active: 8.91 µM
14 | CCOC(=O)N1CCC(NC(=O)c2ccc(CS(=O)(=O)c3ccccc3C)o2)CC1 | – | active: 11.2 µM
15 | C/C(=N\NC(=O)c1c(Cl)cnn1C)c1ccc(NC(=O)c2ccncc2)cc1 | – | inconclusive [inhibitor, single point]
16 | CCC(C)(C)C1CCC(=NNC(=S)Nc2cccnc2)CC1 (centres undefined) | – | inconclusive [inhibitor, single point]
17 | Cc1ccc(S(=O)(=O)N(CC(=O)N2CCC(C)CC2)c2cccc(C)c2)cc1 | – | active: 11.2 µM
18 | O=C(O)[C@@H]1CCCN1Cc1cc2ccccc2c2ccccc12 | inactive: -5.38% [at 13.5 µM] | –
19 | CN(C)CCOc1cc(Cl)cc(Cl)c1 | inactive: 9.8% | –
20 | Cc1ccc2nc3c(cc(C(=O)NCC4CCCO4)n3C)c(=O)n2c1 (centres undefined) | – | inconclusive [inhibitor, partial curve]
21 | O=C(CSc1ccc(Cl)cc1)NN=C1CCCCCC1 | – | inconclusive [inhibitor, single point]
22 | CCOc1ccc(N(C(C)=O)c2nc(C)cc(C)c2C#N)cc1 | inactive: 0.229% | –
23 | FC(F)(F)c1cc(-c2ccco2)nc(NCc2cccnc2)n1 | – | inconclusive [inhibitor, single point]
24 | CCCCN(C)CCCNC(=O)c1cccc(N2CCCC2=O)c1 | inactive: 1.26% | –
25 | Cc1ccccc1Nc1nc(NCc2ccco2)c2ccccc2n1 | – | inconclusive [inhibitor, single point]

Row | Compound | activity, negative = inhibition | Potency
26 | Cc1ccc(-c2nc3ccccc3[nH]2)cc1NC(=O)c1ccco1 | inactive: 3.91% | –
27 | Cc1ccc(/C=C/C(=O)OCc2nc(N)nc(Nc3ccccc3C)n2)o1 | – | inconclusive [inhibitor, single point]
28 | Cc1cc(Oc2nnnn2-c2ccccc2)ccc1Cl | – | inconclusive [inhibitor, single point]
29 | CCOC(=O)C(=O)c1csc(NC(=O)COc2ccc(N(C)S(=O)(=O)c3ccc(F)cc3)cc2)n1 | – | inconclusive [inhibitor, partial curve]
30 | CCc1cc2ccc(C)cc2nc1SCC(=O)Nc1c[nH]c(=O)[nH]c1=O | – | inconclusive [inhibitor, full curve]
31 | CCOc1ccc(S(=O)(=O)Nc2ccccc2C(=O)Nc2ccccc2N2CCOCC2)cc1 | – | active: 28.2 µM
32 | CCN(CC)c1ccc(C=O)c(OC)c1 | – | active: 3.98 µM
33 | CC(NC(=O)COC(=O)CC(c1ccccc1)c1ccccc1)c1ccccc1 (centres undefined) | inactive: 4.86% | –
34 | Cc1ccc(C(=O)CSc2nnnn2C(C)C)c(C)c1 | – | active: 28.2 µM
35 | CCCc1nc(NCC2CCCO2)c2nnn(Cc3ccccc3)c2n1 (centres undefined) | – | inconclusive [inhibitor, single point]
36 | CCNc1ncc2nc(CCc3ccccc3)c(=O)n(-c3ccccc3)c2n1 | – | inconclusive [inhibitor, full curve]
37 | O=[N+]([O-])c1ccccc1N/N=C1\CC2CC=CC12 (centres undefined) | inactive: -11.8% | –
38 | N#CCC(=O)N/N=C/c1ccccc1Cl | – | inconclusive [inhibitor, partial curve, poor fit]
39 | CC[N+](CC)(CC)CC(=O)Nc1ccc(SC(F)F)cc1 | – | inconclusive [inhibitor, single point]
40 | CN(C)c1ccc(/C=C/C(=O)c2ccccc2)cc1[N+](=O)[O-] | – | inconclusive [inhibitor, full curve, poor fit]
41 | S=c1[nH]nc(CNc2cccc(Cl)c2)o1 | – | active: 31.6 µM
42 | CCn1c(CNC(=O)COc2ccc(C(C)C)cc2)nnc1SCC(=O)Nc1ccccc1C(C)C | – | inconclusive [inhibitor, single point]
43 | Cc1ccc(S(=O)(=O)N(C)C)cc1NC(=O)c1ccccc1Br | inactive: -11.2% | –
44 | CCCN1C(=O)c2cc(C(=O)NC3CCCC3)ccc2C1O (centres undefined) | – | inconclusive [inhibitor, partial curve]
45 | Cc1cccc(C(=O)N2CCN(c3ccccn3)CC2)c1 | inactive: 9.93% | –
46 | CCOC(=O)CSc1nc2c(sc(=S)n2-c2ccccc2OC)c(=O)n1Cc1ccco1 | – | inconclusive [inhibitor, single point]
47 | Cc1ccc(S(=O)(=O)Nc2cc(-c3nn(C)c(=O)c4ccccc34)ccc2N2CCOCC2)cc1 | – | active: 22.4 µM
48 | O=c1cc(CSc2nnc(Nc3ccccc3F)s2)nc2sccn12 | inactive: -10.4% | –
49 | Cc1c(C#N)c(O)n(CCO)c(=O)c1N=Nc1ccc(S(N)(=O)=O)cc1 | – | inconclusive [inhibitor, single point]
50 | CNC(=S)N/N=C/c1cn(Cc2ccc(F)cc2)c2ccccc12 | – | active: 28.2 µM

Row | Compound | activity, negative = inhibition | Potency
51 | COc1ccc(CCCC(=O)NC2CCCCC2C)c(C)c1 (centres undefined) | – | active: 15.8 µM
52 | CCOC(=O)c1ccc(NC(=O)C2CCCO2)cc1 (centres undefined) | inactive: -12.5% | –
53 | Cc1cc(NC(=O)C2CCC2)n(-c2ccccn2)n1 | inactive: -2.08% | –
54 | CC1CCC(C(=O)NC(C(=O)N2CCc3ccccc3C2)C(C)C)CC1 (centres undefined) | inactive: -14.7% | –
55 | CCOCCCNC(=O)c1ccccc1SC | inactive: 8.47% | –
56 | COc1cc(C2=NOC(C(=O)Nc3ccc(C)cc3)C2)cc(OC)c1OC (centres undefined) | – | inconclusive [inhibitor, single point]
57 | CCN(CC)c1ccc(C(=O)N/N=C/c2ccc(N3CCOCC3)cc2)cc1 | – | inconclusive [inhibitor, single point]
58 | O=[n+]1c2c(n([O-])c3cc(F)c(N4CCCC4)cc31)CCCC2 | – | active: 20 µM
59 | Fc1ccc(C(c2nnnn2Cc2cccs2)N2CCN(c3ccccc3)CC2)cc1 (centres undefined) | – | inconclusive [inhibitor, single point]
60 | CCN(CC)S(=O)(=O)c1ccc(Cc2ncc(C(F)(F)F)cc2Cl)s1 | – | inconclusive [inhibitor, partial curve]
61 | COc1cccc(C(=O)OCc2ccccc2C#N)c1O | – | inconclusive [inhibitor, single point]
62 | COc1ccc(-c2noc(CCCC(=O)NCc3ccco3)n2)cc1OC | inactive: -8.63% | –
63 | CC1=C(C#N)C(NC(=O)c2ccco2)(C(F)(F)F)C(=O)N1 (centres undefined) | inactive: 12.4% | –
64 | Cc1ccc(C)c(N(C)S(=O)(=O)c2ccc3[nH]cc(C(=O)NCCN4CCOCC4)c(=O)c3c2)c1 | – | inconclusive [inhibitor, single point]
65 | NS(=O)(=O)c1ccc(NC(=S)Nc2nn(Cc3ccc(Cl)cc3Cl)cc2Cl)cc1 | – | inconclusive [inhibitor, single point]
66 | COc1ccc(NS(=O)(=O)c2cc(NC(=O)c3ccncc3)ccc2N2CCOCC2)cc1 | inactive: 3.25% | –
67 | COCCNc1nc(-c2cccc(NS(C)(=O)=O)c2)nc2ccccc12 | – | inconclusive [inhibitor, single point]
68 | O=C(Nc1cccc2cccnc12)c1ccc2c(c1)OCCO2 | – | inconclusive [inhibitor, partial curve]
69 | c1ccc(COc2ccc(CNCc3cccnc3)cc2)cc1 | inactive: 1.97% | –
70 | O=C(NC(=S)N(CCCCO)C1CCCCC1)c1sc2ccccc2c1Cl | – | inconclusive [inhibitor, single point]
71 | COc1ccccc1NS(=O)(=O)c1cc(NC(=S)Nc2cc(C)cc(C)c2)ccc1Cl | – | inconclusive [inhibitor, partial curve, poor fit]
72 | COc1cccc(C2CC(=O)N3CN(c4ccccc4F)CSC3=C2C#N)c1 (centres undefined) | – | active: 25.1 µM
73 | CCCOc1cccc(-c2cc(C(=O)NN)c3ccccc3n2)c1 | – | inconclusive [inhibitor, partial curve]
74 | Cc1ccc(/C(O)=C2/C(=O)C(=O)N(CCN3CCOCC3)C2c2cccnc2)cc1 (centres undefined) | – | inconclusive [inhibitor, single point]

— PubChem BioAssay AID1030 (National Center for Advancing Translational Sciences (NCATS), 2008)
